# Assay results taken from article PMC9911399, “Two distinct binding modes provide the RNA-binding protein RbFox with extraordinary sequence specificity”.
# Positions count from the first letter of the chain named. Some of the results follow.
# T1: RBFOX1 RRM RbFoxmut (Fox-RRM*) (Homo sapiens, UniProt Q9NWB1 109-208, R118D;E147R;N151S;E152T)
# T1 sequence: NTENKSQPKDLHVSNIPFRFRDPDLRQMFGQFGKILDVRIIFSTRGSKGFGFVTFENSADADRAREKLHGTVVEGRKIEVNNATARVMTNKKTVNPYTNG
# B1: GAUUAGA (DNA:RNA)
# RNA: GGGAGACCGGAAUUCAGAUUGUCCGAUUAGAUUAAAUCCCGUCGUAGCCACCA
# DNA 1: CAATCTGAATTCCGGTCTCCC
# DNA 2: TGGTGGCTACGACGGGATT
# B2: CGCCGCG (DNA:RNA)
# RNA: GGGAGACCGGAAUUCAGAUUGUCCCGCCGCGUUAAAUCCCGUCGUAGCCACCA
# DNA 1: CAATCTGAATTCCGGTCTCCC
# DNA 2: TGGTGGCTACGACGGGATT
# B3: CUGAUCG (DNA:RNA)
# RNA: B2 RNA with G26U, C27G, C28A, G29U
# DNA 1: CAATCTGAATTCCGGTCTCCC
# DNA 2: TGGTGGCTACGACGGGATT
# B4: GCUGCCC (DNA:RNA)
# RNA: B1 RNA with A26C, U28G, A29C, G30C, A31C
# DNA 1: CAATCTGAATTCCGGTCTCCC
# DNA 2: TGGTGGCTACGACGGGATT
# B5: UUAACCA (DNA:RNA)
# RNA: B2 RNA with C25U, G26U, C27A, C28A, G29C, G31A
# DNA 1: CAATCTGAATTCCGGTCTCCC
# DNA 2: TGGTGGCTACGACGGGATT
# B6: AUAACGA (DNA:RNA)
# RNA: B1 RNA with G25A, A26U, U27A, U28A, A29C
# DNA 1: CAATCTGAATTCCGGTCTCCC
# DNA 2: TGGTGGCTACGACGGGATT
# B7: ACGAUCU (DNA:RNA)
# RNA: B2 RNA with C25A, G26C, C27G, C28A, G29U, G31U
# DNA 1: CAATCTGAATTCCGGTCTCCC
# DNA 2: TGGTGGCTACGACGGGATT
# B8: GGGGGGC (DNA:RNA)
# RNA: B2 RNA with C25G, C27G, C28G, C30G, G31C
# DNA 1: CAATCTGAATTCCGGTCTCCC
# DNA 2: TGGTGGCTACGACGGGATT
# B9: GAGCCAA (DNA:RNA)
# RNA: B1 RNA with U27G, U28C, A29C, G30A
# DNA 1: CAATCTGAATTCCGGTCTCCC
# DNA 2: TGGTGGCTACGACGGGATT
# B10: AUGUCAU (DNA:RNA)
# RNA: B1 RNA with G25A, A26U, U27G, A29C, G30A, A31U
# DNA 1: CAATCTGAATTCCGGTCTCCC
# DNA 2: TGGTGGCTACGACGGGATT
# B11: CUAAGGA (DNA:RNA)
# RNA: B2 RNA with G26U, C27A, C28A, C30G, G31A
# DNA 1: CAATCTGAATTCCGGTCTCCC
# DNA 2: TGGTGGCTACGACGGGATT
# B12: CUACAUG (DNA:RNA)
# RNA: B2 RNA with G26U, C27A, G29A, C30U
# DNA 1: CAATCTGAATTCCGGTCTCCC
# DNA 2: TGGTGGCTACGACGGGATT
# B13: AAGAGGC (DNA:RNA)
# RNA: B1 RNA with G25A, U27G, U28A, A29G, A31C
# DNA 1: CAATCTGAATTCCGGTCTCCC
# DNA 2: TGGTGGCTACGACGGGATT
# B14: CUUAGCU (DNA:RNA)
# RNA: B2 RNA with G26U, C27U, C28A, G31U
# DNA 1: CAATCTGAATTCCGGTCTCCC
# DNA 2: TGGTGGCTACGACGGGATT
# B15: AGCGCUA (DNA:RNA)
# RNA: B2 RNA with C25A, C28G, G29C, C30U, G31A
# DNA 1: CAATCTGAATTCCGGTCTCCC
# DNA 2: TGGTGGCTACGACGGGATT
# B16: CCAUCGA (DNA:RNA)
# RNA: B1 RNA with G25C, A26C, U27A, A29C
# DNA 1: CAATCTGAATTCCGGTCTCCC
# DNA 2: TGGTGGCTACGACGGGATT
# B17: CUGAAGA (DNA:RNA)
# RNA: B1 RNA with G25C, A26U, U27G, U28A
# DNA 1: CAATCTGAATTCCGGTCTCCC
# DNA 2: TGGTGGCTACGACGGGATT
# B18: AGGGCAG (DNA:RNA)
# RNA: B2 RNA with C25A, C27G, C28G, G29C, C30A
# DNA 1: CAATCTGAATTCCGGTCTCCC
# DNA 2: TGGTGGCTACGACGGGATT
# B19: UUUAGCG (DNA:RNA)
# RNA: B2 RNA with C25U, G26U, C27U, C28A
# DNA 1: CAATCTGAATTCCGGTCTCCC
# DNA 2: TGGTGGCTACGACGGGATT
# B20: UUGAAAG (DNA:RNA)
# RNA: B2 RNA with C25U, G26U, C27G, C28A, G29A, C30A
# DNA 1: CAATCTGAATTCCGGTCTCCC
# DNA 2: TGGTGGCTACGACGGGATT
# B21: CGGCGGA (DNA:RNA)
# RNA: B2 RNA with C27G, C30G, G31A
# DNA 1: CAATCTGAATTCCGGTCTCCC
# DNA 2: TGGTGGCTACGACGGGATT
# B22: AAAAUAG (DNA:RNA)
# RNA: B2 RNA with C25A, G26A, C27A, C28A, G29U, C30A
# DNA 1: CAATCTGAATTCCGGTCTCCC
# DNA 2: TGGTGGCTACGACGGGATT
# B23: UUGAGCU (DNA:RNA)
# RNA: B2 RNA with C25U, G26U, C27G, C28A, G31U
# DNA 1: CAATCTGAATTCCGGTCTCCC
# DNA 2: TGGTGGCTACGACGGGATT
# B24: GAUGCGC (DNA:RNA)
# RNA: B1 RNA with U28G, A29C, A31C
# DNA 1: CAATCTGAATTCCGGTCTCCC
# DNA 2: TGGTGGCTACGACGGGATT
# B25: AAGACUU (DNA:RNA)
# RNA: B1 RNA with G25A, U27G, U28A, A29C, G30U, A31U
# DNA 1: CAATCTGAATTCCGGTCTCCC
# DNA 2: TGGTGGCTACGACGGGATT
# B26: AUGCACA (DNA:RNA)
# RNA: B2 RNA with C25A, G26U, C27G, G29A, G31A
# DNA 1: CAATCTGAATTCCGGTCTCCC
# DNA 2: TGGTGGCTACGACGGGATT
# B27: GGAAUUG (DNA:RNA)
# RNA: B2 RNA with C25G, C27A, C28A, G29U, C30U
# DNA 1: CAATCTGAATTCCGGTCTCCC
# DNA 2: TGGTGGCTACGACGGGATT
# B28: CGCCAUG (DNA:RNA)
# RNA: B2 RNA with G29A, C30U
# DNA 1: CAATCTGAATTCCGGTCTCCC
# DNA 2: TGGTGGCTACGACGGGATT
# B29: GUGAAGG (DNA:RNA)
# RNA: B1 RNA with A26U, U27G, U28A, A31G
# DNA 1: CAATCTGAATTCCGGTCTCCC
# DNA 2: TGGTGGCTACGACGGGATT
# B30: CCAAGGG (DNA:RNA)
# RNA: B2 RNA with G26C, C27A, C28A, C30G
# DNA 1: CAATCTGAATTCCGGTCTCCC
# DNA 2: TGGTGGCTACGACGGGATT
# B31: CCCCACU (DNA:RNA)
# RNA: B2 RNA with G26C, G29A, G31U
# DNA 1: CAATCTGAATTCCGGTCTCCC
# DNA 2: TGGTGGCTACGACGGGATT
# Molecular target: T1, RBFOX1 RRM RbFoxmut (Fox-RRM*)
# Test: EMSA; HiTS-Eq, 1 nM pool, 10 min; buffer printed only for the single-RNA assays: 10 mM Tris pH 7.5, 150 mM NaCl, 3.4 mM EDTA, 0.001% NP-40, 30 C
# Details: tags: His6 N-terminal (pET28a); label: 5' 32P
# Outline: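 Purified RbFox RRM (wild type or mutant) was equilibrated for 10 min in 50 µL with 1 nM of a 5′-radiolabelled pool of RNA with 7 randomized nucleotides, its flanks annealed to DNA oligonucleotides, across increasing protein concentrations. Free RNA was separated by 8% native PAGE, excised, reverse-transcribed, PCR-barcoded and sequenced on an Illumina HiSeq 2500. Relative association constants came from read-count changes of each variant against the control reaction, normalised to the cognate motif.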
row,Binder,binding signal
1,B1,0.0757 KA relative to UGCAUGU
2,B2,0.115 KA relative to UGCAUGU
3,B3,0.145 KA relative to UGCAUGU
4,B4,0.0603 KA relative to UGCAUGU
5,B5,0.102 KA relative to UGCAUGU
6,B6,0.074 KA relative to UGCAUGU
7,B7,0.0674 KA relative to UGCAUGU
8,B8,0.0893 KA relative to UGCAUGU
9,B9,0.0785 KA relative to UGCAUGU
10,B10,0.126 KA relative to UGCAUGU
11,B11,0.066 KA relative to UGCAUGU
12,B12,0.0835 KA relative to UGCAUGU
13,B13,0.0977 KA relative to UGCAUGU
14,B14,0.103 KA relative to UGCAUGU
15,B15,0.111 KA relative to UGCAUGU
16,B16,0.0828 KA relative to UGCAUGU

row,Binder,binding signal
1,B17,0.0948 KA relative to UGCAUGU
2,B18,0.0849 KA relative to UGCAUGU
3,B19,0.129 KA relative to UGCAUGU
4,B20,0.103 KA relative to UGCAUGU
5,B21,0.121 KA relative to UGCAUGU
6,B22,0.115 KA relative to UGCAUGU
7,B23,0.0876 KA relative to UGCAUGU
8,B24,0.114 KA relative to UGCAUGU
9,B25,0.0884 KA relative to UGCAUGU
10,B26,0.089 KA relative to UGCAUGU
11,B27,0.218 KA relative to UGCAUGU
12,B28,0.155 KA relative to UGCAUGU
13,B29,0.0716 KA relative to UGCAUGU
14,B30,0.0538 KA relative to UGCAUGU
15,B31,0.145 KA relative to UGCAUGU
